In PubChem BioAssay (NCI) one finds TGI and GI50 data, which are given here for 5 compounds.

Some test systems named below: UACC-62 melanoma; OVCAR-8 ovarian; 786-0 renal; HT29 colon; M14 melanoma; TK-10 renal; MOLT-4 leukemia; CCRF-CEM leukemia; A549 NSCLC; T-47D breast; NCI/ADR-RES ovarian; HOP-92 NSCLC; OVCAR-5 ovarian; HL-60(TB) leukemia; UO-31 renal.
Assay in all cases: NCI tumour cell line growth inhibition, 48 h

Each structure is given as a SMILES string.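 Five concentrations, 48 hours, 96-well plates. GI50 is the concentration that inhibits growth by half.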 The source holds more than one record for some entries. This list holds those alone. There may be further records. For some of these results: Records of one sample usually come from different ranges of test concentrations, which the source does not state; some values may only mark the edge of a range.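 TGI marks complete inhibition of growth.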 For some of these results: Values that stand side by side are repeats in other runs, samples, wells, individuals or studies. Records carry a tag for their origin. A, B and so on number the origins entry by entry.

As to `CC(C)C[C@@H](NC(=O)[C@@H](Cc1ccccc1)NC(=O)c1cnccn1)B1Oc2ccc(C[C@H](NC(=O)[C@H](Cc3ccc4c(c3)OB([C@@H](CC(C)C)NC(=O)[C@@H](Cc3ccccc3)NC(=O)c3cnccn3)O4)NC(=O)[C@@H](N)CC3CCC4OB([C@@H](CC(C)C)NC(=O)[C@@H](CC5CCCCC5)NC(=O)C5CNCCN5)OC4C3)C(=O)NCCCC[C@@H]3NC(=O)[C@@H](Cc4ccccc4)NC(=O)[C@H](CC(=O)O)NC(=O)CNC(=O)[C@H](CCCNC(=N)N)NC3=O)cc2O1` (stereo partly specified), the TGI in the assay on UACC-62 melanoma was 78.3 nM and 6.19 nM; in the assay with OVCAR-8 ovarian, 460 nM and 33.4 nM; in the assay with 786-0 renal, 36.8 nM and 762 nM; in the assay with HT29 colon, 114 nM and 4.56 nM; with M14 melanoma, 141 nM and 3.77 nM; with TK-10 renal, 105 nM and 4.97 nM.

Take `COc1ccc2c(c1)c1c(C)c3cnccc3c(C)c1n2CCCN`: the GI50 in the assay on MOLT-4 leukemia is < 10 nM [1 test] and 119 nM [mean of 3 tests]. The TGI was 13.4 µM [1 test] and 417 nM [mean of 3 tests] with CCRF-CEM leukemia; 1.43 µM and 132 nM in the assay with A549 NSCLC.

In the case of `C/C=C/C1=CN2C(=O)c3cc(OC4OC(C)C(NC)C(C)(O)C4O)c(C)cc3N=C[C@@H]2C1` (stereo partly specified), in the assay on T-47D breast, the TGI was 92.2 nM and 5.61 µM. Also, the GI50 with NCI/ADR-RES ovarian is 191 nM and 14.6 nM.

Consider `Nc1ccccc1NC(=O)c1ccc(CNC(=O)OCc2cccnc2)cc1`, for which the TGI was 17.8 µM [sample A] and 886 nM [sample B] in the assay on HOP-92 NSCLC; 771 nM [sample A] and 49.5 µM [sample B] in the assay on OVCAR-5 ovarian; 5.82 µM [sample A] and > 100 µM [sample B] with HT29 colon.

For the compound `O=[N+]([O-])c1cccc2nc3ccccc3c(NCCN(CCO)CCO)c12`, the TGI in the assay with HL-60(TB) leukemia is 786 nM and 13.8 nM; with UO-31 renal, 104 nM and 1.48 µM.
